Results published in PubChem BioAssay AID1768 (National Center for Advancing Translational Sciences (NCATS), 2009).
Values joined by “and” are separate entries in the source; they are usually repeats but may differ in a detail not shown here. Identical values can stand only once. Out of some 270,000 compounds screened, about 620 (0.23%) were called active. The shares of active, inactive and inconclusive entries below differ from those in the screen. The call rests on the fitted dose curve; in most records, active means well fitted inhibition curve with a large enough effect in the polarisation, with a control signal flat (not every such curve was filed as active); inconclusive means small, poorly fitted or top-dose-only effect, or effect the other way, or a change in a side signal; inactive means no such curve, though single readings can be large or run the other way; the % refers to the polarisation. Potencies of inconclusive entries are doubtful fits and often do not repeat. “Side channel” marks fits to a control or component signal instead of the main read-out.

Biological target: Menin (Homo sapiens) (UniProt O00255)
UniProt O00255, sequence (O00255 whole entry, looked up): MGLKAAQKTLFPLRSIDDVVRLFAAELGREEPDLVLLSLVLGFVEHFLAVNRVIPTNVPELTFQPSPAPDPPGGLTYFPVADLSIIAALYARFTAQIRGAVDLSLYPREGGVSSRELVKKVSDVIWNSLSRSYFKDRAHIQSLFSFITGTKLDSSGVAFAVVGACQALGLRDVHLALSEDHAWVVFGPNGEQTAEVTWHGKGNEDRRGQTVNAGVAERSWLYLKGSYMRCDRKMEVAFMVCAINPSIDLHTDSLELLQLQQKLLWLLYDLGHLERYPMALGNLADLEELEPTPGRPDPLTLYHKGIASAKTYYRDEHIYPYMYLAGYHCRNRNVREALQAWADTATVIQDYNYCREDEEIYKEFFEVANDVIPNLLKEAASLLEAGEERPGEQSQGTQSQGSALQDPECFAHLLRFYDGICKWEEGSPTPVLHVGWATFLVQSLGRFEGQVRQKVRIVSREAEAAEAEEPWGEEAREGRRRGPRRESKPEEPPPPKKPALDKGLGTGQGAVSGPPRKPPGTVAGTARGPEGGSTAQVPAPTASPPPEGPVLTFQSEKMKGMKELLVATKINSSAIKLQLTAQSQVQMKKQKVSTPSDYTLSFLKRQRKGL
Assay: qHTS Assay for Inhibitors Targeting the Menin-MLL Interaction in MLL Related Leukemias: Competition With Texas Red Labeled MLL-derived Mutant Peptide; on FP activity change, negative = inhibition: % of control where 0% means no effect
Details: fluorescence polarization; FP activity change, negative = inhibition: at 61.6 µM (top of the series)
Potency means the concentration at half of the fitted maximal effect; tags describe the fitted curve by direction and shape or compound fluorescence and quenching.

Row | SMILES | Potency | FP activity change, negative = inhibition
1 | Cc1cc(NC(=O)Cn2c(=O)oc3ccc(Cl)cc32)no1 | inconclusive: 22.4 µM [fluorescent, side channel, single point] | –
2 | CCOC(=O)NC(=O)/C(C#N)=C\Nc1sccc1C(=O)OC | inconclusive: 28.2 µM [inhibitor, partial curve] | –
3 | O=S(=O)(c1cccc(NC(=S)N2CCN(c3ccc(F)cc3)CC2)c1)C(F)F | inconclusive: 12.6 µM [quencher, side channel, partial curve] | –
4 | Cc1cc(NC(=O)CSc2nnnn2-c2ccc(F)cc2)no1 | inconclusive: 7.94 µM [fluorescent, side channel, partial curve] | –
5 | O=C(Nc1cccc([N+](=O)[O-])c1)c1ccc2snnc2c1 | inconclusive: 8.91 µM [quencher, side channel, partial curve] | –
6 | CCOC(=O)C1C(=O)NC(C)C1c1ccccc1 (stereo not given) | inconclusive: 17.8 µM [inhibitor, partial curve] | –
7 | CN(C)c1ccc(C(=O)N(Cc2ccccc2)Cc2ccccc2)cc1 | inconclusive: 7.08 µM [fluorescent, side channel, full curve] | –
8 | O=C(c1ccc2nc3ccccc3c(=O)n2c1)N1CCN(Cc2ccc3c(c2)OCO3)CC1 | inconclusive: 39.8 µM [inhibitor, single point] | –
9 | COc1ccc(Nc2ncnc3c2cnn3-c2ccccc2)cc1OC | inconclusive: 10 µM [quencher, side channel, partial curve] | –
10 | CCn1c(COc2cccc(OC)c2)nnc1SCC(=O)Nc1ccccc1C(=O)OC | inconclusive: 10 µM [fluorescent, side channel, partial curve] | –
11 | CCCc1nn(C)c2c(=O)[nH]c(-c3ccccc3OCC)nc12 | inconclusive: 11.2 µM [inhibitor, partial curve] | –
12 | CCCCN(CC)C(=O)c1cc2c(=O)n3cccc(C)c3nc2s1 | inconclusive: 11.2 µM [fluorescent, side channel, partial curve] | –
13 | CCN(CC)CCCNC(=O)c1[nH]c2ccccc2c1Sc1ccc(Cl)cc1 | inconclusive: 39.8 µM [inhibitor, partial curve] | –
14 | CC1(OC(=O)c2ccc(Cl)nc2)C(=O)C=C2C=C(c3ccc(C#N)cc3)OC=C2C1=O (stereo not given) | inconclusive: 39.8 µM [quencher, side channel, single point] and inconclusive: 39.8 µM [inhibitor, single point] | –
15 | COc1cc(Br)cc(CNc2ccc(F)c([N+](=O)[O-])c2)c1O | inconclusive: 31.6 µM [quencher, side channel, partial curve] | –
16 | CCOc1ncccc1C(=O)NCc1ccc(OC)cc1 | – | inactive: -18.3%
17 | Nc1nc(Nc2ccc(Cl)cc2)n[nH]1 | inconclusive: 28.2 µM [quencher, side channel, single point] | –
18 | Cc1nc2c(c(C)nn2-c2ccccc2)c(C)c1CCC(=O)NCCCOC(C)C | – | inactive: -4.69%
19 | CC(=O)OCC1=C(C(=O)O)N2C(=O)C(NC(=O)c3ccc(COc4cccc(Cl)c4Cl)o3)C2SC1 (stereo not given) | inconclusive: 39.8 µM [quencher, side channel, single point] | –
20 | O=C(NNC(=S)NC(=O)c1ccccc1)c1cccc([N+](=O)[O-])c1 | inconclusive: 17.8 µM [quencher, side channel, partial curve] | –
21 | CCCCCCn1c(N2CCN(c3cccc(Cl)c3)CC2)nc2c1c(=O)[nH]c(=O)n2C | inconclusive: 2.24 µM [fluorescent, side channel, full curve] | –
22 | CCOC(=O)c1ccc2ncc(C(=O)OCC)c(NCCN3CCOCC3)c2c1 | inconclusive: 28.2 µM [inhibitor, single point] | –
23 | Cc1nc2nc[nH]n2c(=O)c1NC(=O)c1c(-c2ccccc2Cl)noc1C | inconclusive: 0.708 µM [inhibitor, full curve] | –
24 | O=C(O)/C=C\C(=O)Nc1ccc(N2CCN(c3ccc(Cl)c(Cl)c3)CC2)cc1 | inconclusive: 14.1 µM [quencher, side channel, partial curve] | –
25 | CC(=O)N[C@@H](C)c1nc2ccccc2n1CCCN1CCN(c2nc(-c3ccc(C)cc3)cs2)CC1 | inconclusive: 8.91 µM [inhibitor, partial curve] | –
26 | COc1ccc(-c2cc(C(=O)OCC(=O)c3c(N)n(C)c(=O)n(C)c3=O)c3ccccc3n2)cc1 | inconclusive: 3.55 µM [quencher, side channel, full curve] | –
27 | Cc1ccc(/C=C2\C(=O)Nc3ccccc32)o1 | inconclusive: 35.5 µM [quencher, side channel, single point] | –
28 | O=C1c2ccccc2C2=Nc3ccccc3SC(c3ccccc3F)C12 (stereo not given) | inconclusive: 3.98 µM [quencher, side channel, full curve] | –

Row | SMILES | Potency | FP activity change, negative = inhibition
29 | C(=C\c1ccccc1)/CN1CCN(Cc2nc(Cc3ccccc3)no2)CC1 | inconclusive: 2 µM [fluorescent, side channel, full curve, poor fit] | –
30 | O=C(CN(C(=O)CCC(=O)Nc1nccs1)c1ccc(F)cc1)NCCc1ccccc1 | inconclusive: 8.91 µM [inhibitor, full curve] | –
31 | N=c1c(C(=O)NCC2CCCO2)cc2c(=O)n3ccccc3nc2n1C1CCCCC1 (stereo not given) | inconclusive: 44.7 µM [inhibitor, partial curve] | –
32 | Cc1[nH]nc2c1C(=O)CC(C)(C)C2 | inconclusive: 6.31 µM [inhibitor, single point] | –
33 | COc1ccc(-c2cc(-c3ccccc3)c(C#N)c(SCC(=O)Nc3ncc(C)s3)n2)cc1 | inconclusive: 28.2 µM [inhibitor, single point] | –
34 | COc1ccc(Cl)cc1NC(=O)C(C)N1CCN(C/C=C/c2ccccc2)CC1 (stereo not given) | – | inactive: -12.5%
35 | Clc1ccc(-c2csc(N/N=C\c3cccnc3)n2)cc1 | inconclusive: 31.6 µM [quencher, side channel, single point] | –
36 | COc1cc2c(cc1OC)-c1cc(Nc3ccccc3Br)nc(=O)n1CC2 | inconclusive: 11.2 µM [inhibitor, partial curve] | –
37 | CCc1ccc(-c2nc(CN3CCC(C(=O)NCc4ccccc4OC)CC3)c(C)o2)cc1 | inconclusive: 2.82 µM [fluorescent, side channel, full curve] | –
38 | O=C(Nc1nc(-c2ccc3ccccc3c2)cs1)C1CCN(S(=O)(=O)c2cccs2)CC1 | – | inactive: -22.8%
39 | O=S(=O)(Nc1nc2ccccc2nc1N1CCN(c2ccccn2)CC1)c1ccc(Cl)cc1 | inconclusive: 15.8 µM [quencher, side channel, partial curve] | –
40 | COc1ccc(Nc2nc(-c3c[nH]c4ccccc34)cs2)cc1 | inconclusive: 25.1 µM [quencher, side channel, partial curve] | –
41 | CC(C)(C)C1CCc2c(C(=O)NNC(=O)/C=C/C(=O)O)csc2C1 (stereo not given) | inconclusive: 35.5 µM [inhibitor, partial curve] | –
42 | CS(=O)(=O)N1CCN(c2ccc(NC(=S)NC(=O)c3ccccc3[N+](=O)[O-])cc2)CC1 | inconclusive: 28.2 µM [quencher, side channel, single point] | –
43 | CCCCNC(=O)c1c[nH]c2ccc(S(=O)(=O)N3CCOCC3)cc2c1=O | – | inactive: 3.67%
44 | COc1ncc2nc(-c3cc(F)cc(F)c3)c(=O)n(-c3ccccc3)c2n1 | inconclusive: 39.8 µM [fluorescent, side channel, single point] | –
45 | CCn1c(O)c(C=Nc2ccccc2)sc1=S | inconclusive: 20 µM [quencher, side channel, partial curve] | –
46 | CC(C)C1Cc2c(sc3ncnc(NN)c23)CO1 (stereo not given) | inconclusive: 14.1 µM [quencher, side channel, partial curve] | –
47 | Cc1cc(C)c2sc(NC(=O)c3ccc([N+](=O)[O-])o3)nc2c1 | inconclusive: 28.2 µM [quencher, side channel, single point] | –
48 | O=C(CC(=O)Nc1ccccc1[N+](=O)[O-])Nc1ccccc1[N+](=O)[O-] | inconclusive: 11.2 µM [quencher, side channel, single point] | –
49 | COc1ccc(-c2n[nH]c(C)c2-c2ccc(Cl)cc2)c(O)c1 | inconclusive: 17.8 µM [quencher, side channel, partial curve] | –
50 | Cc1ccc2nc(-c3ccc(NC(=O)CN4CCN(C(=O)c5ccco5)CC4)cc3)sc2c1 | inconclusive: 22.4 µM [quencher, side channel, partial curve] | –
51 | CC1CCC(O)C/C1=C\C=C1/CCCC2(C)C1CCC2C(C)/C=C/C(C)C(C)C (stereo not given) | inactive and inconclusive: 39.8 µM [inhibitor, single point] | –
52 | O=C1/C(=C/c2ccc(N3CCOCC3)o2)SC(=Nc2ccccc2)N1CCc1c[nH]c2ccccc12 | inconclusive: 11.2 µM [quencher, side channel, partial curve] | –
53 | CCNc1nc(=S)nc(NCc2ccccc2)[nH]1 | inconclusive: 39.8 µM [inhibitor, single point] | –
54 | O=C(CCc1ccccc1)N=C1SC2CS(=O)(=O)CC2N1c1cccc(F)c1 (stereo not given) | inconclusive: 17.8 µM [quencher, side channel, partial curve] | –
55 | O=C(NCc1n[nH]c(=S)n1-c1ccc(Cl)c(Cl)c1)c1ccc(S(=O)(=O)N2CCCCC2)cc1 | inconclusive: 14.1 µM [quencher, side channel, partial curve] | –
